# In all, about 390,000 compounds went through this assay and about 930 (0.24%) were called active. The shares of active, inactive and inconclusive entries below differ from those in the screen. Calls come from the whole dose curve; as a rule, active = well fitted activation curve with a large enough effect; inconclusive = small, poorly fitted or top-dose-only effect; inactive = no such curve, though single readings can be large or run the other way. Potencies of inconclusive entries are doubtful fits and often do not repeat.
# Experiment: qHTS for Suppressors of FUS Proteinopathy: Primary screen using FUS-linked yeast assay; note: nearly all actives have a fitted effect of over 55% in size;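 for growth rescue (activation): plate controls were DMSO vehicle for no effect and reference control for full effect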
# Details: S. cerevisiae FUS-expressing, OD600, 24 h; Potency: growth rescue; growth rescue (activation): at 76.6 µM (top of the series)
# How it was run: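 Galactose (2%) drives FUS expression in yeast precultured in raffinose; seeding density OD 0.005. Test compounds incubated 24hr at 30C and 99% humidity before absorbance at 600 nm was measured.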
# Potency is the fitted concentration of half-maximal effect; tags give direction and shape of the fitted curve.
SMILES,growth rescue (activation),Potency
CC(=O)N1CCOc2cc(S(=O)(=O)N(C)Cc3ccccc3)c(Cl)cc21,inactive: 19.1%,–
Cc1ccc(Nc2nnc(SCC(=O)Nc3cc(C(=O)O)ccc3C)s2)c(C)c1,inactive: -13%,–
Cc1cc(OCc2cc(C(=O)N(C)CCc3cnn(C)c3)no2)cc(C)c1Cl,inactive: 32.6%,–
COC(=O)c1ccc(Cn2ccc3ccc(-c4ccc5ccn(C(=O)c6cccc(OC)c6)c5c4)cc32)cc1,–,"inconclusive: 50.1 µM [activator, single point]"
CC(CCc1ccccc1)NC(=O)c1cc2sccc2n1C (stereo not drawn),inactive: 12.3%,–
COc1ccc(-c2ccccc2)cc1NC(=O)C1(C)CCN1C(=O)C(C)C (stereo not drawn),–,"inconclusive: 31.6 µM [activator, single point]"
COc1ccc([C@H]2N[C@]3(CCCN(Cc4ccc(C)cc4)C3=O)[C@H]3C(=O)N(Cc4ccccc4)C(=O)[C@@H]23)cc1,–,"inconclusive: 25.1 µM [activator, single point]"
CC(NC(=O)c1ccc(NC(=O)CC2SC(N3CCCC3)=NC2=O)cc1)c1ccc(S(N)(=O)=O)cc1 (stereo not drawn),–,"inconclusive: 28.2 µM [activator, partial curve, poor fit]"
CCO[C@H]1OC(C(=O)Nc2ccccc2)=C[C@@H](c2ccc(C(F)(F)F)cc2)[C@@H]1CCCO,inactive: 35.9%,–
COc1ccc(CCN2C(=O)C3C4C=CC(C3C2=O)C2C(=O)N(CCc3ccc(OC)c(OC)c3)C(=O)C42)cc1OC (stereo not drawn),inactive: 29%,–
COC(=O)CCC(=O)OC1(C)C(=O)C2=CN(Cc3ccc(OC)cc3)C(c3ccc(OC)cc3)=CC2=C(Br)C1=O (stereo not drawn),–,"inconclusive: 28.2 µM [activator, single point]"
Cc1cc(C)c(S(=O)(=O)c2c(C)cccc2C)c(Cl)n1,–,"inconclusive: 44.7 µM [activator, partial curve, poor fit]"
CCOc1ccccc1NC(=O)/C=C/c1ccc(S(=O)(=O)N2CCOCC2)cc1,–,"inconclusive: 25.1 µM [activator, single point]"
Cc1ccc(C)c(CN2C(=O)c3ccccc3S(=O)(=O)c3ccc(C(=O)NCc4ccccc4)cc32)c1,–,"inconclusive: 22.4 µM [activator, single point]"
CSc1cccc(NC(=O)COC(=O)C2CCN(S(=O)(=O)c3ccccc3)CC2)c1,–,"inconclusive: 28.2 µM [activator, single point]"
N#C/C(=C/c1cccc([N+](=O)[O-])c1)C(=O)Nc1ccccc1O,–,"inconclusive: 0.891 µM [activator, full curve, poor fit]"
COc1ccc(-c2cc(=O)oc3c(C)c(OCC(=O)N[C@@H](Cc4ccc(O)cc4)C(=O)O)ccc23)cc1,–,"inconclusive: 28.2 µM [activator, single point]"
Cc1c(NC(=O)c2cccc(NC(=O)Cc3ccccc3F)c2)c(=O)n(-c2ccccc2)n1C,–,"inconclusive: 11.2 µM [activator, single point]"
NNC(=O)c1ccc(CSc2nc3ccccc3s2)cc1,–,"inconclusive: 25.1 µM [activator, partial curve]"

SMILES,growth rescue (activation),Potency
Cc1nc2cc(-c3ccccc3)nn2c(C)c1CCC(=O)NC(C)c1ccc2c(c1)OCCO2 (stereo not drawn),–,"inconclusive: 28.2 µM [activator, partial curve, poor fit]"
O=C(c1ccc(C(F)(F)F)cc1)N1CCC(=O)N(C(COCc2ccc(C(F)(F)F)cc2)Cc2ccccc2)CC1 (stereo not drawn),–,"inconclusive: 12.6 µM [activator, partial curve, poor fit]"
COc1ccc(/C=C/C(=O)NC(=S)Nc2cc([N+](=O)[O-])ccc2O)cc1OC,–,"inconclusive: 50.1 µM [activator, single point]"
O=C(Nc1nnc(C2CC2)s1)C1Cc2ccccc2CN1C(=O)c1ccco1 (stereo not drawn),–,"inconclusive: 39.8 µM [activator, single point]"
COc1cccc(C(=O)NC(=S)Nc2ccccc2N2CCCC2)c1,–,"inconclusive: 12.6 µM [activator, partial curve, poor fit]"
CCOC(=O)C1=C[C@@H](C(C)(C)C)N(S(=O)(=O)c2ccc(C)cc2)[C@H]1c1ccccc1,inactive: 18.6%,–
Cn1c(SCC(=O)Nc2nc3ccccc3s2)nnc1-c1ccccc1,–,"inconclusive: 6.31 µM [activator, partial curve, poor fit]"
CN(C)S(=O)(=O)c1cccc(NC(=O)C2Cc3ccccc3CN2C(=O)c2ccco2)c1 (stereo not drawn),inactive: 32.8%,–
COc1ccc([C@@H]2CC=C(C(=O)O)[C@H](c3ccc(Cl)cc3)N2S(=O)(=O)c2ccccc2C)cc1,–,"inconclusive: 50.1 µM [activator, single point]"
Cc1cc2cc(C(c3nnnn3C3CCCC3)N(Cc3cccnc3)Cc3ccco3)c(=O)[nH]c2cc1C (stereo not drawn),inactive: 11.9%,–
Cc1cc(/C=C(/C#N)C(=O)Nc2ccccc2)c(C)n1-c1cccnc1,–,"inconclusive: 5.01 µM [activator, single point]"
N#CCCCc1cn(-c2ccc(-c3noc4c3C(=O)N(CC(=O)N3CCOCC3)CC4)cc2)nn1,inactive: 9.05%,–
CSc1nc(SC(C)C(=O)O)c2c3c(sc2n1)COC(C)(C)C3 (stereo not drawn),–,"inconclusive: 2.82 µM [activator, full curve]"
Cc1cc(C)n2nc(C(=O)OCCOc3cccc(Br)c3)nc2n1,inconclusive: 92.8% [activator],–
O=C(CSc1nc2c([nH]c3ccccc32)c(=O)n1-c1ccc(Cl)cc1)NCC1CCCO1 (stereo not drawn),inactive: -16.6%,–
CC1Cc2cc(S(=O)(=O)N(Cc3ccccc3)C(C)C)ccc2N1C(=O)C1CCC1 (stereo not drawn),–,"inconclusive: 50.1 µM [activator, single point]"
CN1C(=O)[C@@H]2C[C@@]3([C@@]45C[C@H]6C(=O)N(C)[C@@H](Cc7ccccc7)C(=O)N6[C@@H]4Nc4ccccc45)c4ccccc4N[C@H]3N2C(=O)[C@@H]1Cc1ccccc1,–,"inconclusive: 7.94 µM [activator, partial curve]"
Fc1ccccc1/C=C1\CCCC2=C1NC(=S)NC2c1ccccc1F (stereo not drawn),–,"inconclusive: 20 µM [activator, single point]"
COC(=O)[C@]1(Cc2ccccc2)N[C@H](c2ccc(-c3cccc(Cl)c3)c(OC)c2)[C@@H]2C(=O)N(C)C(=O)[C@@H]21,–,active: 14.1 µM
